Assays:
Type in all cases: in vivo
[1] = system: DIO mouse model (C57BL/6J-DIO); assay: Weight change in DIO mice after IgG4-GDF / IgG4-GDF(CRL) administration
Protocol: (§1) The pharmacological effect of the fusion polypeptide produced and purified in Example 1 was tested in mice (C57BL/6J, 6 weeks, male, 100 mice; RaonBio).
The test materials (IgG4-GDF ? GDF IgG4-GDF(CRL)) and control material
(§2) Semaglutide (Bachem) were subcutaneously administered. The dose of all the control material and test materials was 5 mL/kg, and the dose by individual was calculated on the basis of the recently measured weight, […] (1 mL). […] For a comparison group in which Semaglutide was administered, Semaglutide were administered every day once a day. All administrations were progressed from 9 AM.
The weight of each mouse was measured at the day of the start of administration of the test materials (before administration), and then the weight was measured every day (measured by 19 days at maximum). The dose of the test materials was determined on the basis of the most recently measured weight.

[2] = system: DIO mouse model (C57BL/6J-DIO); assay: Feed intake in DIO mice after IgG4-GDF / IgG4-GDF(CRL) administration
Protocol: as §1, §2
In addition, after administering the test materials to mice, the feed intake was measured every day, and the amount of feeding was measured using an electronic scale by each breeding box, and then the residual amount was measured to calculate the feed intake a day. Individuals who severely ate the feed were excluded from the measurement.

[3] = Pharmacodynamic (PK) test in SD rat, serum concentration by Human GDF15 ELISA; conditions: 2 mg/kg subcutaneous
Protocol: For evaluation of pharmacodynamic characteristics when each polypeptide was subcutaneously administered to rats, polypeptide IgG4-GDF or IgG4-GDF(CRL) was subcutaneously administered in an amount of 2 mg/kg, respectively, to SD Rat (Koatech, male, 7 weeks, about 250g; n=3 each; test group), and at a fixed time, blood was collected about […] through a caudal vein. Blood collecting was progressed before administration of the fusion polypeptide, in 1, 2, 4, 8, 24, 48, 72, 96, 168, 240 and 336 hours after administration. As a control group for comparison of pharmacodynamic characteristics, GDF15 (R&D Systems) was subcutaneously administered in an amount of 2 mg/kg by the same method as above to prepare GDF15 administration group.
After administering to SD Rat as above, blood collected by time-point was centrifuged to obtain serum, and ELISA was performed using Human GDF15 Immunoassay (SGD150, R&D Systems), to measure the concentration in serum over time for each polypeptide.

[4] = 1 nmol/kg s.c. Single Inj., Day 0
[5] = 1 nmol/kg s.c. Single Inj., Day 1
[6] = 1 nmol/kg s.c. Single Inj., Day 2
[7] = 1 nmol/kg s.c. Single Inj., Day 3
[8] = 1 nmol/kg s.c. Single Inj., Day 4
[9] = 1 nmol/kg s.c. Single Inj., Day 5
[10] = 1 nmol/kg s.c. Single Inj., Day 6
[11] = 1 nmol/kg s.c. Single Inj., Day 7
[12] = 1 nmol/kg s.c. Single Inj., Day 8
[13] = 1 nmol/kg s.c. Single Inj., Day 9
[14] = 1 nmol/kg s.c. Single Inj., Day 10
[15] = 1 nmol/kg s.c. Single Inj., Day 11
[16] = 1 nmol/kg s.c. Single Inj., Day 12
[17] = 1 nmol/kg s.c. Single Inj., Day 13
[18] = 1 nmol/kg s.c. Single Inj., Day 14
[19] = 1 nmol/kg s.c. Single Inj., Day 15
[20] = 1 nmol/kg s.c. Single Inj., Day 16
[21] = 1 nmol/kg s.c. Single Inj., Day 17
[22] = 1 nmol/kg s.c. Single Inj., Day 18
[23] = 1 nmol/kg s.c. Single Inj., Day 19
[24] = 10 nmol/kg s.c. Single Inj., Day 0
[25] = 10 nmol/kg s.c. Single Inj., Day 1
[26] = 10 nmol/kg s.c. Single Inj., Day 2
[27] = 10 nmol/kg s.c. Single Inj., Day 3
[28] = 10 nmol/kg s.c. Single Inj., Day 4
[29] = 10 nmol/kg s.c. Single Inj., Day 5
[30] = 10 nmol/kg s.c. Single Inj., Day 6
[31] = 10 nmol/kg s.c. Single Inj., Day 7
[32] = 10 nmol/kg s.c. Single Inj., Day 8
[33] = 10 nmol/kg s.c. Single Inj., Day 9
[34] = 10 nmol/kg s.c. Single Inj., Day 10
[35] = 10 nmol/kg s.c. Single Inj., Day 11
[36] = 10 nmol/kg s.c. Single Inj., Day 12
[37] = 10 nmol/kg s.c. Single Inj., Day 13
[38] = 10 nmol/kg s.c. Single Inj., Day 14
[39] = 10 nmol/kg s.c. Single Inj., Day 15
[40] = 10 nmol/kg s.c. Single Inj., Day 16
[41] = 10 nmol/kg s.c. Single Inj., Day 17
[42] = 10 nmol/kg s.c. Single Inj., Day 18
[43] = 10 nmol/kg s.c. Single Inj., Day 19

B1: IgG4-GDF(CRL): fusion polypeptide: mutated IgG4 Fc CH2-CH3 not comprising hinge (SEQ ID NO: 7)-GS linker (SEQ ID NO: 18)-GDF(CRL) (SEQ ID NO: 2) (protein)
chain: [omitted - human IgG4 Fc with F234A L235A (EU numbers)]GGGGSGGGGSGGGGSGGGGSCRLHTVRASLEDLGWADWVLSPREVQVTMCIGACPSQFRAANMHAQIKTSLHRLKPDTVPAPCCVPASYNPMVLIQKTDTGVSLQTYDDLLAKDCHCI
modifications: Synthetic_human IgG4-Fc (UniProtKB P01861) CH2-CH3 (mutated); Synthetic_peptide linker; Synthetic_DeltaN14GDF15
[1]; 1 nmol/kg administered once
  duration of weight loss effect: up to 10 days
[1]; [4]
  Body Weight, Mean: 100 % of initial
[1]; [5]
  Body Weight, Mean: 99 % of initial
[1]; [6]
  Body Weight, Mean: 98 % of initial
[1]; [7]
  Body Weight, Mean: 97 % of initial
[1]; [8]
  Body Weight, Mean: 96 % of initial
[1]; [9]
  Body Weight, Mean: 95 % of initial
[1]; [10]
  Body Weight, Mean: 94 % of initial
[1]; [11]
  Body Weight, Mean: 93 % of initial
[1]; [12]
  Body Weight, Mean: 92 % of initial
[1]; [13]
  Body Weight, Mean: 92 % of initial
[1]; [14]
  Body Weight, Mean: 91 % of initial
[1]; [15]
  Body Weight, Mean: 91 % of initial
[1]; [16]
  Body Weight, Mean: 91 % of initial
[1]; [17]
  Body Weight, Mean: 91 % of initial
[1]; [18]
  Body Weight, Mean: 91 % of initial
[1]; [19]
  Body Weight, Mean: 91 % of initial
[1]; [20]
  Body Weight, Mean: 91 % of initial
[1]; [21]
  Body Weight, Mean: 92 % of initial
[1]; [22]
  Body Weight, Mean: 92 % of initial
[1]; [23]
  Body Weight, Mean: 92 % of initial
[1]; 10 nmol/kg administered once
  duration of weight loss effect: up to 15 days
[1]; [24]
  Body Weight, Mean: 100 % of initial
[1]; [25]
  Body Weight, Mean: 98 % of initial
[1]; [26]
  Body Weight, Mean: 97 % of initial
[1]; [27]
  Body Weight, Mean: 95 % of initial
[1]; [28]
  Body Weight, Mean: 94 % of initial
[1]; [29]
  Body Weight, Mean: 92 % of initial
[1]; [30]
  Body Weight, Mean: 91 % of initial
[1]; [31]
  Body Weight, Mean: 90 % of initial
[1]; [32]
  Body Weight, Mean: 88 % of initial
[1]; [33]
  Body Weight, Mean: 87 % of initial
[1]; [34]
  Body Weight, Mean: 85 % of initial
[1]; [35]
  Body Weight, Mean: 85 % of initial
[1]; [36]
  Body Weight, Mean: 84 % of initial
[1]; [37]
  Body Weight, Mean: 83 % of initial
[1]; [38]
  Body Weight, Mean: 83 % of initial
[1]; [39]
  Body Weight, Mean: 82 % of initial
[1]; [40]
  Body Weight, Mean: 83 % of initial
[1]; [41]
  Body Weight, Mean: 84 % of initial
[1]; [42]
  Body Weight, Mean: 84 % of initial
[1]; [43]
  Body Weight, Mean: 85 % of initial
[1]; same dose
  weight loss effect at the same dose compared to the GDF (CRL) fusion polypeptide with Fc (Mutated) of IgG4 comprising Hinge (in words): excellent weight loss effect
[2]; [4]
  Feed intake a day, Mean: 3.3
[2]; [5]
  Feed intake a day, Mean: 2.0
[2]; [6]
  Feed intake a day, Mean: 2.6
[2]; [7]
  Feed intake a day, Mean: 2.7
[2]; [8]
  Feed intake a day, Mean: 2.4
[2]; [9]
  Feed intake a day, Mean: 2.7
[2]; [10]
  Feed intake a day, Mean: 2.3
[2]; [11]
  Feed intake a day, Mean: 2.5
[2]; [12]
  Feed intake a day, Mean: 2.5
[2]; [13]
  Feed intake a day, Mean: 2.8
[2]; [14]
  Feed intake a day, Mean: 2.4
[2]; [15]
  Feed intake a day, Mean: 2.8
[2]; [16]
  Feed intake a day, Mean: 2.6
[2]; [17]
  Feed intake a day, Mean: 3.0
[2]; [18]
  Feed intake a day, Mean: 2.8
[2]; [19]
  Feed intake a day, Mean: 2.9
[2]; [20]
  Feed intake a day, Mean: 3.1
[2]; [21]
  Feed intake a day, Mean: 3.3
[2]; [22]
  Feed intake a day, Mean: 3.0
[2]; [23]
  Feed intake a day, Mean: 3.3
[2]; 10 nmol/kg dose
  weight loss effect compared to the full-length GDF15 fusion polypeptide (in words): a little excellent weight loss effect
[2]; [24]
  Feed intake a day, Mean: 3.1
[2]; [25]
  Feed intake a day, Mean: 1.5
[2]; [26]
  Feed intake a day, Mean: 2.3
[2]; [27]
  Feed intake a day, Mean: 2.4
[2]; [28]
  Feed intake a day, Mean: 2.4
[2]; [29]
  Feed intake a day, Mean: 2.3
[2]; [30]
  Feed intake a day, Mean: 2.3
[2]; [31]
  Feed intake a day, Mean: 2.0
[2]; [32]
  Feed intake a day, Mean: 2.3
[2]; [33]
  Feed intake a day, Mean: 2.4
[2]; [34]
  Feed intake a day, Mean: 2.1
[2]; [35]
  Feed intake a day, Mean: 2.5
[2]; [36]
  Feed intake a day, Mean: 2.3
[2]; [37]
  Feed intake a day, Mean: 2.5
[2]; [38]
  Feed intake a day, Mean: 2.6
[2]; [39]
  Feed intake a day, Mean: 2.6
[2]; [40]
  Feed intake a day, Mean: 3.0
[2]; [41]
  Feed intake a day, Mean: 3.4
[2]; [42]
  Feed intake a day, Mean: 3.3
[2]; [43]
  Feed intake a day, Mean: 3.1
[2]; 10 nmol/kg single administration
  duration for which diet suppression ability was maintained: about 2 weeks
[3]; [(AUCinf − AUClast)/AUCinf]*100
  AUCextp: 18.2%
[3]; serum
  AUClast: 2004 µg·h/mL
  Cmax (maximum blood concentration): 9730 ng/mL
  Tmax (time to reach maximum blood concentration): 48 h
  half-life: 114 h
  t1/2 (elimination half-life): 114 h
[3]; serum, extrapolated to infinite time
  AUCinf: 2593 µg·h/mL
